Each structure is given as a SMILES string. Hit rate of the full screen: of about 52,000 compounds, about 1,700 (3.3%) were called active. Rule as the data show it: active = survival mostly below about 52% (no sharp cut-off); inactive = mostly above about 56%. Some of the results follow.

The assay relates to Wild type. The assay is described as follows: growth inhibition of S. aureus wild type versus tarO mutant, primary screen, teichoic acid synthesis inhibitors, RN4220, OD600 (AID 463173). As to conditions: S. aureus RN4220 wild type/DeltatarO growth, OD600, 18 h, stronger effect = lower value, screened at 18.75 µg/mL (by protocol).
Take `COc1ccc(CCN2CCC(CNC(=O)c3cnn(-c4ccccc4)c3C3CCN(C(=O)OC(C)(C)C)CC3)CC2)cc1`: the survival is inactive: 97%.

As to `Cc1nn(C(C)C(=O)NC2CCC(C)CC2)c(=O)c2cc3sccc3n12` (stereo not given), the survival is inactive: 81%.

As for `COc1ccccc1N1CCN(C(=O)c2cn(C)c3ccc(S(=O)(=O)N4CCOCC4)cc3c2=O)CC1`, the survival was inactive: 75%.

For the compound `CN(C)c1ccc(CNC(=O)CCCn2ccc3cc(S(=O)(=O)N4CCCC4)ccc32)cc1`, the survival is active: 0%.

For the compound `COc1ccc(OC)c(S(=O)(=O)N2CC=C(c3c(C)n(CC(=O)N4CCCC4)c4ccccc34)CC2)c1`, the survival was inactive: 83%.

On to `CCOc1ccc(C2C(C(=O)Nc3ccc(Cl)cc3)=C(C)Nc3nc(C(F)(F)F)nn32)cc1` (stereo not given), for which the survival was inactive: 37%.

Take `O=S(=O)(c1ccc(Cl)cc1)c1nnn2c1nc(N1CCCCC1)c1sccc12`: the survival was inactive: 76%.

As for `Cc1ccccc1NC(=O)CN(c1ccc(Cl)cc1Cl)S(=O)(=O)c1ccccc1`, the survival was inactive: 62%.

With `Cc1ccc(C)c(N/C=C(\C#N)c2nc3ccccc3o2)c1`, the survival is inactive: 108%.

`Fc1ccccc1-n1ncc2c1ncn1nc(Cc3ccccc3)nc21`: the survival is inactive: 79%.

As to `Cc1ccc2c(c1)-c1c(c(C(=O)N3CCN(c4cc(Cl)ccc4C)CC3)nn1C)CS2`, the survival is inactive: 73%.

In the case of `CC(CNC(=O)CCS(=O)(=O)c1ccc2c(c1)oc(=O)n2C)c1ccccc1` (stereo not given), the survival is inactive: 82%.

For `Cc1cccc(NC(=O)N2CCC(CN3CCOCC3)CC2)c1C`, the survival was inactive: 93%.

As to `Cc1cn(C)c(CC(=O)N2CCN(c3ccccc3F)CC2)c1C(=O)O`, the survival was inactive: 69%.

Regarding `COc1ccc(-c2nc3sc(CCNC(=O)c4ccccc4C)c(C)n3n2)cc1`, the survival was inactive: 73%.

With `O=S(=O)(NCc1ccccc1Cl)c1ccc(N2CCCCS2(=O)=O)cc1`, the survival is inactive: 152%.

`O=C(Cn1nnc(-c2ccncc2)n1)NCCc1ccccc1`: the survival is inactive: 99%.

Consider `Cc1c(C(=O)NCCc2ccc(S(N)(=O)=O)cc2)sc2nc3n(c(=O)c12)CCCC3`, for which the survival was inactive: 87%.

For the compound `Cc1cccn2c(=O)c3cc(C(=O)N(Cc4ccccc4)C(C)C)sc3nc12`, the survival was inactive: 77%.

For the compound `Cc1cccc(C(=O)Nc2nc(-c3nnn(-c4cc(F)ccc4F)c3C)ns2)c1`, the survival was inactive: 133%.

As to `CCCCN(C)CCNC(=O)c1ccc2c(c1)NC(=O)CN2`, the survival is inactive: 78%.

For the compound `CC1CCN(S(=O)(=O)c2ccc3c(c2)N(CC(=O)O)C(=O)CO3)CC1`, the survival was inactive: 78%.

For the compound `COc1ccc(-c2cc(C(F)(F)F)n3nc(C(=O)NCC45CC6CC(CC(C6)C4)C5)cc3n2)cc1OC`, the survival is inactive: 129%.

With `Cc1cccc(Cn2c(C)c(CNC3CCCCC3)c(C(=O)O)c2C)c1`, the survival is inactive: 91%.

In the case of `Cc1cc(Cl)ccc1NC(=O)C1CCN(c2nnc(-n3c(C)ccc3C)s2)CC1`, the survival is inactive: 81%.

For `CCOC(=O)c1ccccc1NC(=O)N1CCOc2ccc(Cl)cc21`, the survival is inactive: 112%.

For `Cc1ccc2ccc3cc(C(=O)N4CCN(c5ccccc5)CC4)nc3c2[nH]1`, the survival was inactive: 128%.

As for `CC(=O)Nc1ccc(-c2nnc(SCC(=O)c3ccc([N+](=O)[O-])cc3)o2)cc1`, the survival was inactive: 87%.

As to `Cc1ccc(NC(=O)C(=O)NCC(c2cccnc2)N2CCN(Cc3ccccc3)CC2)cc1` (stereo not given), the survival was inactive: 85%.

Consider `CCc1ccccc1NC(=O)CSc1nc2c(oc3ccccc32)c(=O)n1-c1ccccc1F`, for which the survival was inactive: 90%.

For `O=C(O)CCC(=O)CCN1CCCCC1`, the survival is inactive: 108%.

For `Cc1cc(C)c(NC(=O)CSc2nc(-c3ccc(F)cc3)nc3c2Cc2c(CO)cnc(C)c2O3)c(C)c1`, the survival is inactive: 83%.

In the case of `O=c1c2c([nH]c3ccccc13)CCCCC2`, the survival is inactive: 101%.

For `O=C(Cn1ncc2c3ccccc3n(Cc3ccccc3F)c2c1=O)N1CCCCC1`, the survival is inactive: 127%.

In the case of `CC(C)CN(CCCNC(=O)CN1N=C(c2ccccc2)CCC1=O)CC(C)C`, the survival is inactive: 134%.

Regarding `CCOc1ccc(CCNC(=O)c2[nH]c3cc(OC)ccc3c2Sc2ccccc2)cc1OCC`, the survival was inactive: 81%.

For the compound `CCOC(=O)C1=C(CN(CC)Cc2ccccc2)NC(=O)NC1c1ccc(OC(C)C)cc1` (stereo not given), the survival is inactive: 72%.

Take `COc1ccccc1CNC(=O)c1ccc(N2CCCC2)c(NC(=O)NCc2ccc(F)cc2)c1`: the survival was inactive: 121%.

With `CCCCSCCCNC(=O)C1CCN(Cc2nc(-c3cccc(Br)c3)oc2C)CC1`, the survival is inactive: 90%.

In the case of `COc1ccc(N2CCN(c3ccc(-c4nc(-c5cccc(C)c5)no4)cc3[N+](=O)[O-])CC2)cc1`, the survival was inactive: 89%.

As to `O=C(NCCC1=CCCCC1)c1ccc2c(c1)N(Cc1cccc(Cl)c1)C(=O)c1ccccc1S2(=O)=O`, the survival was inactive: 73%.

Turning to `CC(=O)c1cc2c(cc1NC(=O)c1cnn(-c3ccc(C)cc3)c1-n1cccc1)OCO2`, the survival was inactive: 68%.

With `CCOc1ccc(C(=O)N2CCN(CCc3ccccn3)CC2)cc1`, the survival was inactive: 84%.

Consider `Cc1nn(-c2ccc(N3CCCC3)nn2)c(C)c1CCC(=O)NCc1ccc(OC(C)C)cc1`, for which the survival was inactive: 69%.

With `Cn1c(=O)[nH]c(=O)c2c1nc1n2CCN1c1ccccc1`, the survival is inactive: 153%.

For the compound `CCOc1ccc(S(=O)(=O)c2cn(Cc3ccc(OC)cc3)c3ccc(F)cc3c2=O)cc1`, the survival was inactive: 77%.

For the compound `CCOc1ccc(NC(=O)Cn2c(=O)cc(C)c3c(C)nn(-c4cccc(Cl)c4C)c32)cc1`, the survival was inactive: 146%.

Regarding `CCOC(=O)CC(NC(=O)CCc1c(C)nc2ncnn2c1C)c1ccc(OC(C)C)cc1` (stereo not given), the survival is inactive: 127%.

With `CC(C)c1ccc(NC(=O)CCNS(=O)(=O)c2ccc3c(c2)CCCC(=O)N3)cc1`, the survival is inactive: 98%.

`CCOC(=O)c1ccccc1NC(=O)CSc1cn(CC(=O)N2CCOCC2)c2ccccc12`: the survival was inactive: 103%.

As to `COc1ccc(CNC(=O)C2CCC(CNS(=O)(=O)c3cccs3)CC2)cc1` (stereo not given), the survival was inactive: 78%.

In the case of `Cc1ccccc1CSc1nc2cccnc2n1Cc1ccc(C(=O)NC2CC2)cc1`, the survival is inactive: 71%.

With `CCOc1ccc(Nc2nc(C)c(NC(=O)c3cccc(OC)c3)c(Nc3ccc(OCC)cc3)n2)cc1`, the survival is inactive: 128%.

As for `Cc1ccc(-c2nc(S(=O)(=O)c3ccc(C)cc3)c(N3CCCCCC3)o2)cc1`, the survival is inactive: 84%.

As for `Cc1ccc(N2CCN(S(=O)(=O)c3nnc(NC(=O)c4ccc(C(C)C)cc4)s3)CC2)cc1`, the survival is inactive: 82%.

For the origin of these results see PubChem BioAssay AID463173 (ICCB-Longwood Screening Facility, Harvard Medical School, 2010).
